{
  "source": "paper PMC7242911",
  "about": "(Cell, 2020)",
  "target": "T1, Recombinant chicken calmodulin (chicken, UniProt P62149)",
  "T1 construct": "calmodulin, chicken; The NMR methods cite Nakashima et al., 1996 for the CaM; also called CaM; source: recombinant (Nakashima et al., 1996)",
  "test": "NMR titration; 1H,15N-HSQC; CaM titrated into 0.5 mM 13C,15N-labeled recAQP4ct, 0 and 2 molar equivalents; 20 mM Bis-Tris pH 7, 100 mM KCl, 6 mM CaCl2, 30°C",
  "conditions": "both partners purified",
  "data": [
    {"binder": "Recombinant carboxyl terminus of AQP4 (recAQP4ct; […]) (domain or fragment, uniformly 13C, 15N-labeled, cloning artifact left at the amino-terminus after PreScission cleavage; aquaporin-4, human, cytosolic carboxy-terminal tail, […] of NP_001641.1; Cloned in pGEX-6P1; also called recAQPct; rAQP4ct; source: E. coli BL21(DE3), M9 minimal medium, purified (glutathione-Sepharose 4B, cleaved on-column with PreScission Protease); not shown: GST, N-terminal, cleaved) not shown", "values": [
      {"measurement": "binding result", "value": "binds"}
    ]}
  ]
}
